Source: the supplement of paper PMC12217912
The list shows a part of the results. The full chains were built here from the parent and the listed change. Inactive controls read about 0.05.

B1: TEV protease; numbered along this chain (parent)
chain: MGESLFKGPRDYNPISSSICHLTNESDGHTTSLYGIGFGPFIITNKHLFRRNNGTLVVQSLHGVFKVKDTTTLQQHLVDGRDMIIIRMPKDFPPFPQKLKFREPQREERICLVTTNFQTKSMSSMVSDTSCTFPSGDGIFWKHWIQTKDGQCGSPLVSTRDGFIVGIHSASNFTNTNNYFTSVPKNFMELLTNQEAQQWVSGWRLNADSVLWGGHKVFMVKPEEPFQPVKEATQL

Variants of: B1
Experiment: raw area under fraction-flipped curve 0-4 h after induction (AUC4h, not background-subtracted), DNA-recorder readout of cleavage of the substrate (dimensionless); higher = more cleavage of the substrate by the protease variant
Settings: temperature: 34 °C; time window: 0-4 h after rhamnose induction
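Also: Bxb1 expression induced with 0.2% (w/v) L-rhamnose at OD600 near 0.5, cultures sampled hourly, flipped fraction per protease–substrate barcode pair counted by paired-end Illumina sequencing.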

Variant	area with substrate ENLDFQS	area with substrate ENLFFQS	area with substrate ENLGFQS	area with substrate ENLKFQS	area with substrate ENLRFQS	area with substrate ENLSFQS	area with substrate ENLIFQS	area with substrate ENLLFQS	area with substrate ENLNFQS	area with substrate ENLHFQS	area with substrate ENLMFQS	area with substrate ENLVFQS	area with substrate ENLEFQS	area with substrate ENLPFQS	area with substrate ENLQFQS	area with substrate ENLTFQS	area with substrate ENLWFQS	area with substrate ENLCFQS
T129E	0.0577	0.0883	0.0569	0.0754	0.0629	0.0491	–	–	–	–	–	–	–	–	–	–	–	–
Y34W	0.0725	–	–	–	0.0681	–	0.0826	0.0594	0.0626	–	–	–	–	–	–	–	–	–
T70M	0.103	0.0803	–	0.0695	–	–	–	–	0.0692	0.0646	0.0796	0.0636	–	–	–	–	–	–
G54F	0.0606	0.0612	–	0.0682	0.0747	0.0516	0.0732	–	0.0554	0.0554	–	–	0.0571	–	–	–	–	–
S158M	0.0655	0.0599	–	–	0.0498	0.0438	0.0543	0.06	0.0516	0.0542	0.0715	–	0.0563	0.0717	0.0562	0.0645	–	–
S158R	0.0324	0.0555	–	0.0496	–	0.0762	0.0516	0.0436	0.0567	0.0544	–	0.0666	–	–	0.0408	–	0.0623	–
T174H	0.0636	–	0.0613	0.0684	–	0.0532	0.0572	0.0814	0.0638	0.069	–	0.0709	–	0.0526	–	–	0.0635	–
H143M	0.0485	0.0706	–	0.0732	0.0637	–	–	–	0.0693	–	–	–	–	0.0601	0.0665	–	–	–
L235N	0.0943	0.0951	–	0.0595	–	–	–	–	0.0637	–	–	0.0437	0.0718	0.0467	–	–	0.0698	0.0726
L235A	0.077	0.0725	–	0.0833	0.0788	0.0403	–	0.0671	0.0671	0.072	–	0.0714	0.0682	0.0641	0.0672	–	0.0596	0.0761
Q234D	0.0668	0.104	–	0.0685	0.0957	0.0675	0.118	0.0688	0.0589	–	–	–	0.058	0.0596	0.064	–	–	0.0772
G80Y	0.0597	0.0774	0.0536	0.0757	0.0726	0.0563	–	–	0.0709	–	0.0681	–	–	0.0596	0.0813	–	0.0567	–
F38D	0.0474	0.0597	–	–	–	0.0329	–	0.0348	–	–	–	–	–	0.0229	–	–	–	–
F173Q	0.0645	0.0802	–	0.0766	0.0979	0.0615	–	–	0.067	0.0589	–	–	–	0.0393	–	–	–	–
R51G	0.069	–	–	–	0.0636	0.0876	0.103	0.0936	0.0691	0.0613	–	–	0.0608	–	0.0671	–	0.0743	–
K148S	0.0634	0.067	0.0771	0.0831	0.037	0.0798	–	–	0.0605	–	–	–	0.0538	–	–	–	–	–
T119P	0.0621	0.0946	–	0.091	0.0747	–	0.0464	–	–	0.0674	–	–	0.0647	0.0672	0.0718	–	0.0799	–
G35C	0.0422	–	–	–	–	–	0.0663	–	0.0521	0.0574	–	–	0.0685	0.0616	–	–	0.0586	–
F163T	0.0611	0.0814	–	–	–	0.0791	0.0906	0.0675	0.0519	0.0797	0.0635	0.0835	0.0627	0.0589	–	–	–	–

Variant	area with substrate ENLDFQS	area with substrate ENLFFQS	area with substrate ENLGFQS	area with substrate ENLKFQS	area with substrate ENLRFQS	area with substrate ENLSFQS	area with substrate ENLIFQS	area with substrate ENLLFQS	area with substrate ENLNFQS	area with substrate ENLHFQS	area with substrate ENLMFQS	area with substrate ENLVFQS	area with substrate ENLEFQS	area with substrate ENLPFQS	area with substrate ENLQFQS	area with substrate ENLTFQS	area with substrate ENLWFQS	area with substrate ENLCFQS
P228A	0.103	–	–	–	–	–	0.0869	–	0.0504	0.0788	–	0.09	–	0.0691	–	–	–	0.0669
P228E	–	0.066	–	–	–	–	0.0864	–	0.0917	–	–	0.0864	–	–	–	0.0807	–	0.109
F117W	0.0607	–	0.0623	0.0667	–	0.0553	–	–	–	0.0493	0.0679	–	0.0666	0.0687	–	–	–	–
K142V	0.0358	0.0778	0.0683	–	0.0684	–	0.0747	–	0.0598	0.0733	0.0832	–	0.0556	0.0618	0.121	–	0.112	–
V67Q	0.068	0.0692	–	0.0684	0.055	0.0457	–	0.0595	–	0.0634	0.0644	0.0754	–	–	–	–	0.0622	–
E3I	0.0582	0.105	–	–	–	0.0562	–	–	0.0671	0.0837	–	0.105	0.0671	0.0534	–	–	–	–
F92P	0.0648	0.0575	–	0.0562	0.0583	0.0621	–	0.0552	0.0688	–	0.0523	–	0.0622	0.0531	0.0409	–	0.0541	–
S130L	0.0585	0.0698	–	0.0685	0.0567	0.0608	–	0.0652	0.0499	0.0548	–	–	–	0.0419	0.0803	–	–	–
Q75H	0.0712	0.0751	–	0.0593	0.0992	0.0602	0.071	–	0.0597	0.0468	0.0609	–	0.0677	0.0585	0.0599	–	0.067	–
V126S	0.0588	0.0751	0.072	0.0731	0.0839	0.0622	0.0913	–	0.0631	0.0757	0.061	0.0874	–	0.0646	0.0648	–	0.105	–
E231P	0.0931	0.0895	0.0664	0.084	–	0.0464	–	0.0782	0.0729	–	–	–	–	–	–	–	–	0.0885
E231R	0.0774	0.077	0.0601	0.0673	0.073	0.054	–	–	–	0.0721	0.062	–	–	0.0583	0.0834	–	0.0753	0.0712
M83A	0.0657	0.0662	0.0748	0.0832	0.0626	–	–	0.0683	0.0643	0.0548	–	0.0662	–	0.0654	–	0.0718	–	–
M83P	0.0594	0.0454	–	–	–	0.0504	0.054	0.0571	0.054	0.0611	–	0.0469	0.0527	0.0647	0.0481	–	0.0572	–
Q97F	0.0508	–	0.0454	0.0708	0.0838	0.0743	–	–	–	0.0694	–	–	–	–	–	–	–	–
Q97K	0.0611	–	–	–	–	–	–	–	–	0.0519	–	–	–	–	–	–	–	–
K66C	0.0669	0.0648	–	–	0.0689	0.0475	0.083	–	–	–	–	–	–	0.0686	–	0.0842	–	–
F101Y	0.0653	–	–	–	0.0702	0.0368	–	–	0.0707	–	–	0.0589	–	–	–	–	–	–
